This assay deals with bone marrow-derived macrophages (BMM). The assay can be described thus: Osteoclast differentiation and TRAP staining. The note with it: M-CSF 30 ng/ml and RANKL 100 ng/ml, 4 days, TRAP staining, osteoclasts having 5 or more nuclei, FIG. 2. From the text:
The differentiation of osteoclasts occurs by intercellular binding as the differentiation of individual bone marrow-derived macrophages proceeds. Accordingly, only bone marrow-derived macrophages were isolated and cultured, and the separated macrophages were differentiated into osteoclasts.
In order to determine the degree of differentiation of the differentiated osteoclasts, TRAP (tartrate-resistant acid phosphatase) stain assay was used. When macrophages differentiate into osteoclasts, they produce TRAP, which can be stained to quantify the degree of osteoclast differentiation. In addition, in order to confirm the maturity of osteoclasts, the number of cells constituting osteoclasts was identified. As described above, the degree of differentiation of osteoclasts was analyzed using two indicators: the number of nuclei in osteoclast and TRAP (tartrate-resistant acid phosphatase) stain. […]
To generate osteoclasts, BMMs were cultured in a 48-well plate (4×10^4 cells/well) for 4 days with α-MEM complete medium containing 10% (v/v) heat-inactivated fetal bovine serum (FBS) and 50 units/ml of penicillin/streptomycin in the presence of M-CSF (30 ng/ml) and RANKL (100 ng/ml). […] The degree of differentiation was evaluated by determining the number of differentiated osteoclasts per well based on osteoclasts having 5 or more nuclei in the cell.

On to `O=C1NC(Cc2ccccc2)C(=O)N2CCCC12` [cFP, cyclo-L-phenylalanyl-L-proline], for which the “differentiation of bone marrow-derived macrophages into osteoclasts” value is “inhibited in a concentration-dependent manner”.

Values taken from patent publication US20240424051A1, “COMPOSITION FOR TREATING […] OS[…] MECHANISM PROMOTING FORMATION OF MUSCLE FIBERS OR INHIBITING OSTEOCLASTOGENESIS, […]-L-PHENYLALANYL-L-PROLINE DIPEPTIDES” (CELLBION CO., LTD, priority 2021, published 2024).
